Laboratory results published in the supplement of paper PMC3334620.
Over roughly 33,000 sequences, “E-score (-0.5 to 0.5)” has its median near -0.012; the highest 2% begin near 0.29. This is one part of the list.

The sequences below were run against T1, Ybr033w (UniProt P38073) (assay: PBM E-score (8-mer binding enrichment) (E-score (-0.5 to 0.5)); higher = stronger / more preferred TF binding; most listed sequences are background and not binding sites). Conditions: protein concentration: 200 nM; construct: GST-full length.
T1 sequence: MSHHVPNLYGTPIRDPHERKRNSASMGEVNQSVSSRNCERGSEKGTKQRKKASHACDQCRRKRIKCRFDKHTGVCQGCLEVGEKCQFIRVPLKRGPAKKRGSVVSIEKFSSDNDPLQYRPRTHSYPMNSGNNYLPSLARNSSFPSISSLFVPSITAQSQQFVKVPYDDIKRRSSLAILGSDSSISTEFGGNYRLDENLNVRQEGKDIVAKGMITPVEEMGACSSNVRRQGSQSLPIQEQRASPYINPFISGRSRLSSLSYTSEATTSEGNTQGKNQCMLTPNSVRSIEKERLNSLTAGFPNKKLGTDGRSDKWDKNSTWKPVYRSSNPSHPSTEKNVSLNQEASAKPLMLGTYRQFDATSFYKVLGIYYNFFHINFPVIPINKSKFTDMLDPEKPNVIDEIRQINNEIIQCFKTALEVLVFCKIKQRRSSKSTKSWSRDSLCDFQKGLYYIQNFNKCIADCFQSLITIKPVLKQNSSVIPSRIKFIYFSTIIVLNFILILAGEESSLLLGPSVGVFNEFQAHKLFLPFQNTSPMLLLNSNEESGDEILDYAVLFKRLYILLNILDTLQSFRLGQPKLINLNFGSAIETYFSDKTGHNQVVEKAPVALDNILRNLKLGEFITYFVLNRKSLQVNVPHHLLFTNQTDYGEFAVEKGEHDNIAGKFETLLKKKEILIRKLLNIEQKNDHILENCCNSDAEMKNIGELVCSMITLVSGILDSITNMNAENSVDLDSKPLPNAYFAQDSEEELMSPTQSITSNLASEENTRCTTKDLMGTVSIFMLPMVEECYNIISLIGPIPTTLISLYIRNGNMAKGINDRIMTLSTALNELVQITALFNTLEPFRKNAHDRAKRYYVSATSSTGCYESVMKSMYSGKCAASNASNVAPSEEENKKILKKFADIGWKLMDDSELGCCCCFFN
Description: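 Universal 'all 10-mer' protein binding microarrays (Agilent AMADID 015681) probed with GST-tagged S. cerevisiae TFs (full-length or DBD) made by in vitro transcription/translation (PURExpress), about 100-200 nM. Bound TF was detected with fluorescent anti-GST. Each ungapped 8-mer (which stands for itself and its reverse complement) is scored by the PBM enrichment score (E-score), a modified Wilcoxon-Mann-Whitney statistic from -0.5 to +0.5, computed with the Universal PBM Analysis Suite. Scale: above 0.35 generally sequence-specific binding.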

Sequence | PBM E-score
CTTGGTGA | -0.0613
CCTGAGTA | 0.155
AATTAAGC | 0.169
AAATGCTG | -0.00629
AGCGATGG | -0.292
GTACTAAC | 0.151
CATCAAGG | -0.0621
GTCGCTGA | 0.0119
GACCACAA | -0.0851
AATGGTAG | 0.0754
CCAATTAC | 0.0522
ACATACAG | 0.0812
GAGACTAC | -0.0915
AAGACTGA | -0.0518
CCGAAAAC | 0.072
ACCTACAG | 0.0954
CTCCGTGA | -0.162
CATCGTGC | 0.0362
ATCCCGCA | 0.00022
AACCGTCG | -0.162
CCTATGCG | -0.147
GTCCTTGA | -0.0584

Sequence | PBM E-score
AAAAGCGA | 0.171
ATGCCCCC | -0.358
AACCCCCC | -0.445
CTAACTGC | -0.0759
CGCAGAGC | -0.0602
GCATCTTA | 0.179
ACCCTTTA | -0.141
CAATATCG | 0.102
ACGGCAAA | -0.0846
AGCCCCCC | -0.407
GCTTAGGA | -0.0915
ATTATAAG | 0.237
GAGGGCAC | -0.323
CCATTACA | 0.0813
CGGAGCCA | -0.0955
AACCCCTA | -0.135
GCCAGCGC | -0.123
ACTCGTAG | -0.0252
AGACCGCG | -0.147
ACAATTAC | 0.202
TCTAAGAA | 0.282
ATACTTGA | -0.0558

Sequence | PBM E-score
AGAGATAG | 0.174
GCCGGGCA | -0.289
AAGGTACG | 0.0929
ACTTTGGG | -0.0137
GTGAATGA | 0.00677
CAGACTGC | -0.14
AGAGCCTG | -0.0892
GCAATGCA | -0.0811
ACTGGTTG | 0.148
ATCAACGG | 0.152
AGCCGATC | 0.0222
CAGATACC | 0.0326
CCTATCAG | -0.0603
GAAAATGC | 0.104
AGTCAGAC | -0.189
CCACCTGG | -0.179
ATTTGTGC | 0.205
CGTGGTAA | 0.0588
ATGTTTCG | 0.0812
CCCTTGAA | -0.119
ATCCACCG | 0.129
TAAGGAGA | -0.0603

Sequence | PBM E-score
ACCGCTAT | -0.0406
CGATATGC | 0.0496
GGTTCTAA | 0.0421
CATTACAC | 0.0933
CCTCTTTC | 0.0703
GCGTGAGC | -0.00285
CAGTTTGG | -0.0394
GTCCACCA | -0.114
AGTAGTCC | 0.0545
ACCACGAT | 0.0967
GCTCGTGA | -0.142
AATTCTTC | 0.267
CTCTAGTA | 0.0585
CTCTAACA | 0.143
CTGAAGGA | -0.0695
CATTCTGG | -0.15
AAGTGGCG | 0.213
AATGAATG | 0.206
CTTAGAAC | 0.132
CATTAGAG | 0.0843
